In the supplement of paper PMC11417369:
± gives the standard deviation of the averaged measurements. The list shows a part of the results.

System: PfAP2-I AP2 domain 3 (GST-tagged)
Assay: gcPBM binding intensity (ln(normalized median fluorescence intensity)); higher = stronger DNA binding
In short: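 An Agilent 4 × 180k array of primer-extended double-stranded 36-bp intergenic genomic probes, with negative controls, was incubated for 1 h with GST-tagged P. falciparum DNA-binding domains expressed in E. coli. Alexa488 anti-GST antibody detected bound protein, scanned at 488 nm. Binding intensity is the highest Masliner-normalised natural-log median intensity across replicate spots of either probe orientation.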

Row | Sequence | gcPBM binding intensity (ln)
1 | ATTAACACATTTAAGTGTACATATATAAATATATAT [XGTACX_site7098] | 7.82 ± 0.57
2 | TGTGCACGTTCTGTGACACACATTTAAATGTGCTTA [CACACA_site176] | 9.87 ± 0.23
3 | ATATAACTCAAGGGCACACATATACCTTTCCTTTTT [CACACA_site4390] | 8.32 ± 0.63
4 | GGAACGTATATTTTCACACACTCTCAAAAGTACAAG [CACACA_site2301] | 8.09 ± 0.55
5 | GAAACAAAATTATTTTGTACATATGACTGTAGATAT [XGTACX_site972] | 7.88 ± 0.54
6 | ATATATATATATAGTTGTACTTAATTTTATATGTTA [XGTACX_site5256] | 9.53 ± 0.35
7 | CCTTGATATATATAAAGTACATATATATATATATAT [XGTACX_site4325] | 9.38 ± 1
8 | GTGAAATTATTTCCGTGTACACATAAATATATATTT [XGTACX_site3989] | 8.39 ± 0.61
9 | AAACTTATAAAAAGTAGTACCATAAAATAATACATA [XGTACX_site6523] | 7.66 ± 0.15
10 | TTTTACAAATATTACTGTACACATTTTCATATAATT [XGTACX_site17] | 8.14 ± 0.41
11 | TGTTGTATATCTCTATATAGCTATATTGTATATATA [TGCATGCA_negctrl_site323] | 7.7 ± 0.72
12 | TATATTATTTATTAGACACACATTATTAAAATATTT [CACACA_site4737] | 7.54 ± 0.51
13 | AATACACGCAGACACACACACAAAAAAAAAAAAAAA [CACACA_site6384] | 8.14 ± 0.51
14 | ATTTTGTTATGAAACACACACATATAAATATAAATA [CACACA_site7679] | 7.76 ± 0.48
15 | TATATAAAACATGGGTGTACCAACATAAATCATATA [XGTACX_site2320] | 7.84 ± 0.62
16 | AATTGTGCATTATATTGTACACGTGTTGTATATATT [XGTACX_site975] | 11.1 ± 0.4
17 | TTGAATATGGTTACATGTACGTATCAATATTTTTTA [XGTACX_site4247] | 7.54 ± 0.23
18 | ACATATATTTCAAAGTGTACGCACAATTTTTTTTAC [XGTACX_site6166] | 8.54 ± 0.39
19 | AACATATATATAATATGTACATAATATATATAAATG [XGTACX_site1161] | 7.62 ± 0.35
20 | TTATTATTTTTTAACACACACATATATATTATATCT [CACACA_site4906] | 8.15 ± 0.38
21 | GTAAGAACACTTTTGTGGTTACTTAAAAGTGTATAT [GTGCAC_negctrl_site422] | 7.68 ± 0.55
22 | ATTTCAACAAATATAACACACAATGGATAAGAATAA [CACACA_site1974] | 7.96 ± 0.72

Row | Sequence | gcPBM binding intensity (ln)
23 | TTAGTTTCCCAAATATGTACATAAATATAAATCATA [XGTACX_site2746] | 7.99 ± 0.15
24 | AATACAGTTAGAGAAAGTACACAACTAATATACATA [XGTACX_site8814] | 7.86 ± 0.35
25 | TGCTTATATGTTGTTACACACTAAAATAGTTAGATA [CACACA_site1277] | 7.94 ± 0.54
26 | AATATGTGAATATAATCACACACAATACGGAAACAC [CACACA_site8875] | 9.015 ± 0.078
27 | AAAGAAGGATAATAATGTACAAGCAAAAAAATAAAA [XGTACX_site466] | 8.04 ± 0.8
28 | CTTTTTTTAATGATAACACACATGTTGTGCATAGAC [CACACA_site3270] | 9.63 ± 0.14
29 | AAATAATTATTTATCACACATATGTATTTATATATA [CACACA_site4589] | 7.66 ± 0.43
30 | ATTCCACCTTAAAACTGTACTTTCTCAATCTTTTAT [XGTACX_site796] | 7.86 ± 0.66
31 | CATATATAAATATGTATGCACTTTAACAAAATGTAT | 8.89 ± 0.14
32 | ATATTTATTTATATGTGTACTTATGTTTATATAAAA [XGTACX_site4250] | 8.02 ± 0.21
33 | ATAAAGTAGATATTTTGTACGCAGGTTGTATATATT [XGTACX_site1464] | 8.32 ± 0.71
34 | TACTTTACTAATATATATAGGAGAGTATACATGAAA [CACACA_negctrl_site63] | 7.75 ± 0.63
35 | GGAATTATAATAAATGGTACACATAAAAAAAAAAAA [XGTACX_site8343] | 8.06 ± 0.54
36 | ATTATGTTATATACACGTACGTGTGCTTTATAATTA [XGTACX_site2728] | 10.2 ± 0.61
37 | TAATAAATAGGACACACACACATATATATATATTAT [CACACA_site4891] | 8.06 ± 0.3
38 | TTTCTTTTTTTTTTTTGTACATATTTTAATTATTTT [XGTACX_site8676] | 7.75 ± 0.42
39 | TATTATATATATAACTGTACGTTTATAATATAAAAA [XGTACX_site3778] | 7.75 ± 0.28
40 | TATTTTAATTAATATACACACGCTTATATATATATA [CACACA_site7909] | 8.99 ± 0.54
41 | TACAAACTATGATGCACACATATATATCTGTATCCA [CACACA_site4809] | 9.035 ± 0.078
42 | AGTGTTAAAAATGAGGGTACATATAAAATACAGTTC [XGTACX_site457] | 8.07 ± 0.57
43 | TAATCATTTTAGCTTACACACAAAATTTGGTTATAA [CACACA_site5604] | 7.47 ± 0.54
44 | ACAGGATTGGTTCAAACACACATATTATATGACTAT [CACACA_site4536] | 7.76 ± 0.68

Row | Sequence | gcPBM binding intensity (ln)
45 | AGTTTTATATAAGCTTGTACTTAATATTATTAAGTA [XGTACX_site5919] | 7.71 ± 0.53
46 | AAAAAAAAAAATCGCTGTACTTCTAAAGGTGTGTTA [XGTACX_site843] | 7.79 ± 0.3
47 | CAAACAAACGGACACACACACACACCCAAAAATGAT [CACACA_site5363] | 8.06 ± 0.3
48 | TTTGATAAATTATACACACACAATATATATAAAATA [CACACA_site2023] | 7.72 ± 0.51
49 | ACGGACTTAAAATACACACACACCAAAAAAAAAAAA [CACACA_site7304] | 8.12 ± 0.63
50 | AATAATATATAATAATGTACAAAAAAAAAAAAAAAA [XGTACX_site4158] | 7.96 ± 0.52
51 | AAGCTTTGGTGTTATGCATGCAATTAAACTATTAGT [TGCATGCA_site277] | 8.13 ± 0.81
52 | TTTTATTTTTTAGTAGTACACACTTTTTGTACCTTT [CACACA_site599] | 8.3 ± 0.34
53 | AAATAATACCAAATGTGTACTTATTTCACTAATAGA [XGTACX_site7571] | 7.69 ± 0.49
54 | ATATATACTTATATTTGTACACAAAGGTATCTCTAG [XGTACX_site3805] | 7.74 ± 0.63
55 | GGAATAATAAAATTATGTACATAAGAATCATATACT [XGTACX_site6810] | 7.69 ± 0.54
56 | AAAGATTGCGATGGTTGTACTTTTCTATATTTTTTT [XGTACX_site3492] | 7.79 ± 0.79
57 | CTAAAATACGAACACACACACACATATAAATAAATA [CACACA_site7872] | 7.82 ± 0.42
58 | TATACTTCTTATTAAATGAGTAGTATATATTATATA [TGCATGCA_negctrl_site299] | 7.43 ± 0.18
59 | CTATTTCATAAACACACACACACAAACAAACATATA [CACACA_site8234] | 8.03 ± 0.26
60 | AAGTAGTGTTAATACTGTACTTATATTTTTTATTAT [XGTACX_site8264] | 7.74 ± 0.18
61 | TTGATATTTTTTTTATGTACACATGTTCATATTTTT [XGTACX_site8095] | 7.82 ± 0.49
62 | ATTTAAAAAAGAAAGGTGCATTTCAATAATGTAAAA [GTGCAC_site9585] | 10.5 ± 0.35
63 | TCATCTTTTATATGTTGTACGTATTTTCATTTATAT [XGTACX_site4855] | 7.96 ± 0.45
64 | TCACATATTATCTTTACACACTATAAATAAGTTTTA [CACACA_site7335] | 7.88 ± 0.63
65 | TTTTTTTCTTTTTGAGGTACGCATTATTTTATTTGT [XGTACX_site6996] | 7.71 ± 0.36
66 | ATAATTTGATGGTTAACACACATATAGATTATAGAT [CACACA_site7200] | 7.86 ± 0.64

Row | Sequence | gcPBM binding intensity (ln)
67 | AAAAAAATGAAACACACACACACATATATATATATA [CACACA_site1043] | 9.43 ± 0.57
68 | AAACAATTACACATATGTATGTATATATATATATAT [TGCATGCA_negctrl_site536] | 9.12 ± 0.43
69 | ACAAAGTTTATAGAACGTACATACTTACACATATTT [XGTACX_site556] | 7.61 ± 0.57
70 | TTATTATATATATCTCGTACGTGTATACGCCTACCA [XGTACX_site8375] | 7.76 ± 0.65
71 | TGTTATATTTCAAATTGTACTAATCTAATTAATAAA [XGTACX_site604] | 7.62 ± 0.38
72 | ATGGAATTTTTAGAATATGGATAATGTTACTTAAGT [CACACA_negctrl_site494] | 7.64 ± 0.64
73 | GTTATATATATATATATATATATATATATTTTTTTT [GTGCAC_negctrl_site597] | 8.29 ± 0.53
74 | TATATCGTTAATTATACACACATAAAATTAAACTTT [CACACA_site1274] | 7.8 ± 0.43
75 | AAAAACCATGGGCACACACACATAATATATAATATA [CACACA_site1425] | 7.86 ± 0.45
76 | AAATTAAAAAAGAATATACACACCAAAACTGTTTGT [CACACA_site958] | 7.49 ± 0.63
77 | TAAAAAAAGGAAAACATACAATTCTATTTTTCAATA [CACACA_negctrl_site474] | 7.18 ± 0.68
78 | ACCATACATACATACACACACACACGCATATTTATA [CACACA_site7386] | 8.48 ± 0.49
79 | TAATTTTAAATATCTTCACACATTATATTTTTATAT [CACACA_site5411] | 7.785 ± 0.035
80 | TATAATAATACTTATTGTACGATTAGCTTAATTCGT [XGTACX_site15] | 7.42 ± 0.52
81 | TATATAAATAGATACACACATACATACATACATACA [CACACA_site260] | 8.81 ± 0.54
82 | AAGGGTTATTTGATATGTACTTATATATATATATAA [XGTACX_site1659] | 7.91 ± 0.2
83 | AAGGTGGAAACAATTACACACACACTAATAAAAAAA [CACACA_site9051] | 8.08 ± 0.45
84 | TTTTTTAAAAGAAAATAAAAAATAAGCATAATATGA [CACACA_negctrl_site1574] | 7.64 ± 0.51
85 | AAGTACAAATTTAATAAAAATGAAACAAATATGTAT [TGCATGCA_negctrl_site94] | 7.64 ± 0.69
86 | TTCCAAAAAATTATTACACACATATGAGCACATATA [CACACA_site4543] | 7.96 ± 0.4
87 | TATTAATTAAAAAAATGTACATAATTATAAATTTTT [XGTACX_site7994] | 7.5 ± 0.34
88 | TACGGTTGTTTATTTTGTACGTAAAAAATATATTAT [XGTACX_site8393] | 8.03 ± 0.28
